# Measured values: the BET-seq Pho4 binding data (Le et al. 2018)
# The list shows a part of the results. The energies were worked out here from pooled read counts, against the library average; single values are noisy.
# Target: T1, Pho4 (S. cerevisiae) (UniProt P07270)
# T1 sequence: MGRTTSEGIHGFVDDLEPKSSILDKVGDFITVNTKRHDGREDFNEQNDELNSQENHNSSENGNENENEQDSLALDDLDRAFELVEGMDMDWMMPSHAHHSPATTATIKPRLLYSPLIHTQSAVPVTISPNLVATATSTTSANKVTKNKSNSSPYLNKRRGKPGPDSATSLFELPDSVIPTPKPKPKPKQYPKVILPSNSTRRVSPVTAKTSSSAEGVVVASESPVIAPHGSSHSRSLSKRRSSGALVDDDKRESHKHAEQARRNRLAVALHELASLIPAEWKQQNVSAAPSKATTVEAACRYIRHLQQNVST
# Assay: relative binding free energy (BET-seq); higher = weaker binding
# Conditions: reference: library average
row,Sequence,relative binding free energy [kcal/mol]
1,AAAGTCACGTGTTGGG,0.13
2,TACAGCACGTGTTGGT,-0.02
3,TTTTACACGTGAGACG,0.34
4,ATGTACACGTGTGGTT,0.02
5,CGGTACACGTGGCGTT,0.08
6,TTTGGCACGTGTTTAA,-0.04
7,TGAATCACGTGGTGAA,0.26
8,CGCGTCACGTGGGTGA,-0.01
9,GGTTTCACGTGTTGGC,0.35
10,GTATACACGTGTTTTC,0.08
11,GTCTTCACGTGAGGGA,0.28
12,GGTCACACGTGTTAGT,0.28
13,ATTCTCACGTGGGCGT,0.14
14,TGTTTCACGTGTATAG,0.36
15,TCCTTCACGTGAGTTG,0.52
16,GATGACACGTGGGTTC,0.09
17,ATGGTCACGTGGAGGG,0.03
18,CTATGCACGTGAGGTG,-0.03
19,AGTTACACGTGGATTA,0.13
20,CAGTACACGTGATGTG,0.14
21,TGCGGCACGTGATGGG,0.02
22,GAGGTCACGTGGGATC,0.04
23,TGCGGCACGTGGTGTT,-0.16
24,AGAAGCACGTGTTTGG,0.07
25,GTTGGCACGTGACTGA,0.04
26,CATGGCACGTGCGGGC,-0.13

row,Sequence,relative binding free energy [kcal/mol]
1,TCGGGCACGTGTAGGG,-0.01
2,TGACACACGTGTTGGT,-0.15
3,TGGCTCACGTGCGTTG,0.17
4,AGCGTCACGTGTGGTC,0.21
5,AGTGACACGTGGAGTG,-0.05
6,TTGGTCACGTGAATTA,0.32
7,TGATGCACGTGGGATT,-0.04
8,TGGTTCACGTGACTGG,0.45
9,AAAGGCACGTGATAGT,-0.16
10,TATTGCACGTGTTGTG,0.03
11,AGCGGCACGTGTTGTT,0.09
12,GAGGGCACGTGCATGA,0.05
13,GCTGCCACGTGTTGGG,-0.14
14,TTAAGCACGTGATGCG,-0.14
15,AGCGTCACGTGTGGCA,0.05
16,ACGGGCACGTGTGAGT,-0.08
17,ATATGCACGTGGATTG,0.07
18,GGTCTCACGTGGTTAT,0.01
19,GAAGCCACGTGTGGGT,-0.1
20,CTATGCACGTGGTGTG,-0.09
21,GGGGTCACGTGGGCCT,0.24
22,CGTTGCACGTGAGTTT,0.21
23,TGTGTCACGTGTATTC,0.05
24,ACGGACACGTGGTTGG,-0.06
25,GGGTACACGTGGCAGG,-0.02
26,TTTTCCACGTGGTGAT,0.15

row,Sequence,relative binding free energy [kcal/mol]
1,GGTGACACGTGATTGA,0.19
2,TGGGCCACGTGGTTTT,-0.05
3,GTTTGCACGTGATAGA,0.14
4,AGTGACACGTGTGGAT,-0.09
5,GGGTACACGTGGTAGG,0.04
6,GTTTTCACGTGACTTG,0.34
7,GTTTGCACGTGTGACT,0.11
8,CTTTGCACGTGGGTTC,-0.2
9,TTGTGCACGTGACAAT,0.11
10,TGTAGCACGTGTTCTG,-0.1
11,GCGAGCACGTGTGGAT,0.17
12,ATATGCACGTGATGGG,0.09
13,TTGAGCACGTGGTCGT,-0.2
14,TTAGTCACGTGTGAAC,0.28
15,TGACACACGTGTTGTG,-0.13
16,TCGTTCACGTGTGGTC,0.26
17,CATGACACGTGGAGGG,0.1
18,GTCAACACGTGGAAGG,0.26
19,GGTGGCACGTGGGACG,-0.14
20,TAGTGCACGTGTTGGG,0.05
21,ATACGCACGTGGGAGT,-0.17
22,GTAATCACGTGGGAGA,0.16
23,TGTAGCACGTGGCGTG,-0.09
24,TTAGACACGTGATTTT,0.16
25,TCTGTCACGTGTGGGC,0.09
26,AATGGCACGTGGGAGG,-0.13

row,Sequence,relative binding free energy [kcal/mol]
1,TAATTCACGTGGGCTG,0.24
2,GGGCGCACGTGATAGT,0.02
3,ATTGTCACGTGTGTGC,0.13
4,GTGGTCACGTGCGTAT,0.13
5,AGTCGCACGTGTGGGA,0.04
6,TTAAGCACGTGGTGCT,-0.08
7,ATGGCCACGTGAGGTG,0.19
8,TTTGGCACGTGGGGAA,-0.1
9,ATTGGCACGTGCAGTT,-0.16
10,ATGTCCACGTGTATTG,0.04
11,GGGGGCACGTGGAGTG,-0.08
12,CATTTCACGTGCGTGG,0.11
13,CGGGTCACGTGGAGGT,0.19
14,AGGAGCACGTGGTATG,-0.23
15,TGTGACACGTGTCGGC,-0.05
16,CGTTTCACGTGGCTAG,0.26
17,TAGAGCACGTGTTATT,-0.13
18,TTGATCACGTGTCTTT,0.09
19,TAGGGCACGTGTGATA,0
20,TTTTGCACGTGAGATC,0.17
21,TTAATCACGTGAGGAT,0.35
22,TGTCGCACGTGGACTG,0.01
23,TAGCTCACGTGGATTG,0.27
24,GATTACACGTGAGTAT,0.36
25,GCATGCACGTGGTGGA,-0.11
26,GGAGGCACGTGTTACG,-0.05

row,Sequence,relative binding free energy [kcal/mol]
1,TATTACACGTGGTCAT,0.03
2,GCCTGCACGTGGTGGG,0.01
3,GTTCTCACGTGAGAGT,0.53
4,TTTGCCACGTGAGGTT,0.13
5,ACTGCCACGTGGTTGT,-0.03
6,GTGTACACGTGTCAGG,0
7,TAATTCACGTGGGAAT,0.15
8,GACTGCACGTGTGGAG,0.14
9,TTTGTCACGTGTCGGC,0.03
10,GTATGCACGTGTGATG,0.11
11,TGGAGCACGTGGGCGA,-0.18
12,CTTGACACGTGGCTGG,-0.02
13,AGGGGCACGTGCGACG,-0.23
14,ATGGGCACGTGGGTTG,-0.15
15,AGTTTCACGTGTTGAA,0.38
16,TGGAACACGTGTGTCT,0.1
17,TGTACCACGTGTTTAG,-0.09
18,CTTGACACGTGTGGTC,0.07
19,GGTATCACGTGGGCGT,0.02
20,GCGTACACGTGGGTGA,-0.05
21,GTGGTCACGTGCGTTA,0
22,TTTTACACGTGTTTCT,0.04
23,GACGGCACGTGTTTGT,0.06
24,TTATGCACGTGGTGTG,-0.26
25,AAATACACGTGTGTTG,-0.09
26,TACATCACGTGGTTTT,0.07

row,Sequence,relative binding free energy [kcal/mol]
1,ACGGGCACGTGGTAAT,-0.12
2,TGTTACACGTGTTAAT,0.08
3,GGGAGCACGTGGGCTA,-0.22
4,CGTCGCACGTGTTGGA,0
5,TGGGACACGTGGCGTT,0.09
6,GTCGTCACGTGTTGGA,0.19
7,CGGCGCACGTGTGTGA,-0.11
8,GTTGGCACGTGAGCAG,0.28
9,TGGAGCACGTGGAAAT,-0.03
10,TTTTACACGTGAGAGG,0.32
11,TGAGTCACGTGCTTGT,0.07
12,ATGTGCACGTGTGACG,0.07
13,ATATCCACGTGTTGGG,-0.05
14,TGAAACACGTGATGGG,0.26
15,TTTATCACGTGGCGGC,0.11
16,GAATTCACGTGGGGAA,0.24
17,AGGTGCACGTGTTTGT,-0.03
18,GTGAACACGTGGGCTT,-0.06
19,TAAGACACGTGTTCGG,0.14
20,GTCGCCACGTGTAGGG,-0.08
21,AGTGGCACGTGATAGT,0.02
22,TTAGTCACGTGTGAGA,0.03
23,TATACCACGTGTGGTA,0.02
24,CGATTCACGTGTTGTT,0.3
25,TGAGTCACGTGCAGAG,0.13
26,GGGCACACGTGTTGTG,0.15

row,Sequence,relative binding free energy [kcal/mol]
1,TTAGTCACGTGGTGGG,0.11
2,GAGTACACGTGTCGTG,0.14
3,TGTAACACGTGTGCGG,-0.03
4,AAGGCCACGTGGGGAG,-0.2
5,AGGTTCACGTGTAGAT,0.46
6,TAGAGCACGTGTAGTT,-0.07
7,GCTGTCACGTGTGTGA,0
8,GTGGTCACGTGTGGAG,0.26
9,GTGATCACGTGGGTGC,0.07
10,GATAGCACGTGAAGTT,0.39
11,CGTTACACGTGGGGTC,0.01
12,TTCTTCACGTGGGTGC,0.15
13,TTTTACACGTGGCAGA,0.08
14,CATGCCACGTGGGGTG,-0.3
15,GGTAGCACGTGGAGGT,-0.06
16,CTTAGCACGTGTTTGG,-0.03
17,TCGGACACGTGATTTG,0.16
18,TGTGGCACGTGGATGT,0
19,TATTACACGTGTGCTT,0.14
20,TTAATCACGTGCGGTG,0.02
21,AATTGCACGTGGTAGG,-0.04
22,TTGGGCACGTGCAGAG,-0.03
23,AGCATCACGTGTGAGT,0.18
24,CAGTTCACGTGTGTTT,0.2
25,CGGCCCACGTGGGGGT,-0.36
26,AGAGACACGTGATGTT,0.07

row,Sequence,relative binding free energy [kcal/mol]
1,TATTGCACGTGGAATT,0.18
2,AGGACCACGTGTTGGG,-0.02
3,TTAGGCACGTGTGAGT,-0.01
4,GAGAGCACGTGGGGGG,-0.13
5,CGTGCCACGTGTTGGA,0
6,TGGTACACGTGGTAGT,-0.05
7,AAGTGCACGTGTGTGC,-0.01
8,AGGAGCACGTGGAGCG,-0.18
9,GGAGACACGTGGGTAC,-0.05
10,GGGTGCACGTGTGGAG,0.06
11,GTGTGCACGTGTAGAA,0.01
12,AGGCGCACGTGATGAT,0.14
13,TGAGTCACGTGGGGGG,-0.05
14,GTCGTCACGTGTTAAT,0.14
15,GCCGTCACGTGTGTTG,0.17
16,ATGGACACGTGCAGTT,-0.11
17,GTGCTCACGTGAAGTG,0.2
18,CTCGGCACGTGGGGCG,-0.23
19,CGTATCACGTGTAAAT,0.26
20,GCAGTCACGTGTGTAT,0.23
21,TATGACACGTGCGTAT,0.05
22,GATGTCACGTGCGTGG,0.08
23,GGACACACGTGGAGGT,0
24,GTGAGCACGTGTGGTC,0.08
25,GGTTCCACGTGATGGC,0.33
26,TGATTCACGTGAAGGC,0.51

row,Sequence,relative binding free energy [kcal/mol]
1,ATTTGCACGTGGGCCG,-0.12
2,ATAGGCACGTGGTGTA,-0.3
3,CGGGGCACGTGGTACT,-0.18
4,TAGTCCACGTGGGTGA,-0.08
5,AAGTGCACGTGCATGG,-0.09
6,CAGGTCACGTGAAGGT,0.33
7,TTGATCACGTGTGCAT,0.15
8,TGCTTCACGTGGAGGG,0.26
9,CTGTGCACGTGGGAAG,-0.15
10,GATAACACGTGTAGAG,0.2
11,CTGGGCACGTGGTGGT,-0.15
12,TGAATCACGTGAAGTT,0.52
13,AATGACACGTGGGCTT,0.03
14,TAGGGCACGTGGTACA,-0.32
15,ATTCTCACGTGGTTTT,0.22
16,GTGGGCACGTGTTGCA,-0.01
17,GAGAACACGTGTTGTT,0.04
18,TGAGGCACGTGTAGTC,0.01
19,CGGGTCACGTGTCGGA,0.16
20,TGCAGCACGTGTCTGT,-0.07
21,TCGGACACGTGGCGTG,-0.01
22,GTGAACACGTGGGTTA,0
